Assay results reported in the supplement of paper PMC3334620.
Over roughly 33,000 sequences, “E-score (-0.5 to 0.5)” has its median near -0.016; the highest 2% begin near 0.31. The list shows a part of the results.

biological target: Cst6 (UniProt P40535); experiment: PBM E-score (8-mer binding enrichment) (E-score (-0.5 to 0.5)); higher = stronger / more preferred TF binding; most listed sequences are background and not binding sites; details: protein concentration: 200 nM; construct: GST-DNA-binding domain
Summary of the method: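 Universal all-10-mer Agilent arrays, double-stranded by primer extension on fresh or once-stripped slides, were probed with about 100-200 nM GST-tagged yeast transcription factors made by PURExpress. Fluorescent anti-GST detected bound protein, and masliner normalised the scans. E-scores from the Universal PBM Analysis Suite were given to each ungapped eight-base word pooled with its reverse complement.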

Sequence | PBM E-score
CCTAAAAA | 0.12
TGGCAAAA | 0.212
ACAATTAT | 0.289
ATTTGTGG | 0.0944
ACCAGACT | -0.193
ACGAAGTG | 0.116
CTTAAATC | 0.123
TCAAGTAA | 0.164
GCGTTCAA | 0.0369
ATAAGCCG | -0.0888
CTCGTTCA | 0.022
CCCGTCGG | -0.0747
GTTCACTA | -0.0774
CAATTGCG | 0.228
AATGTTCC | -0.021
AGGTCATC | 0.231
GCCCCAAC | -0.0637
GAAGAGCC | 0.0432
AGTCCGTA | -0.202
CCCCTATC | -0.333
ACCGCACG | 0.0528
ACTCGCAC | -0.239
ATATAGTG | 0.197
ACATAGCG | -0.00759
CTTTGCAC | 0.00533

Sequence | PBM E-score
CAGGAGAC | -0.112
GCATCCTA | -0.0937
ACAGCCTA | 0.0738
ATCAACTG | 0.0153
AAGAGGTC | -0.123
GCCGTTAA | 0.103
CCGCTGTA | -0.119
CGCCCACG | -0.0894
CAATCGCA | 0.156
ACGACTCA | -0.133
GTCACTTA | 0.331
ATGGGCCG | -0.222
TTAATTAA | 0.0995
GACGCATC | 0.0635
CGCCTAGA | -0.132
CATAGGCA | -0.0341
GGGAAGTA | -0.0337
TCCCCGAA | -0.169
GGTCCTAA | -0.0909
ATGGTGTC | 0.116
ACGATTCC | -0.0152
CAATGGGA | -0.063
ATGGTATC | -0.0172
GTTATTGA | 0.145
ACCCTGAC | -0.171

Sequence | PBM E-score
ATTCGTCA | 0.423
GGATCTGA | -0.164
AGTATCTA | 0.167
CCTTAGGC | -0.238
AGTGTGCG | -0.191
AAATCCCA | -0.0398
CCAACCGC | -0.097
GGTGGCTA | -0.0622
TCCGCCCA | -0.36
TAGGTATA | 0.0331
AAATATGC | 0.12
GAATGGAC | -0.0991
CCGTATTA | 0.2
GTTGCAGA | 0.0297
TTCTACAA | 0.0764
TCCCTTAA | -0.125
AAGATTAT | 0.149
CCGGGTCC | -0.363
TAATACAA | 0.19
GATTATTA | 0.14
AATTTAGA | 0.128
AAGTACTC | -0.103
CAATAGTA | 0.0411
AAATCCAG | -0.0456
GTTCGTAA | 0.155

Sequence | PBM E-score
GTTGTCCA | -0.13
AGAATGAT | 0.231
CTTTAGTA | 0.0571
AGCTGTGA | 0.135
CGGCGATC | 0.15
CCGGCAGA | -0.282
GCGCCGGA | -0.109
GCTTAACA | -0.0462
CGGCCCCA | -0.208
ATCGAGCC | -0.0393
TCGGTGCA | -0.26
CTCACATA | 0.0251
TAGTGGAA | -0.0995
TGAAGGCA | 0.0356
CATGCATA | 0.143
AGATTAGC | -0.0454
GTGCAGAA | 0.0789
AGAGACAG | -0.168
ATAGGGTA | -0.142
GAGTCCTA | -0.316
AAGGTCAA | 0.00615
AACTCCAC | -0.0479
GCAGAGCA | -0.0965
CTTGCGAC | -0.211
ATTTGGAA | 0.109

Sequence | PBM E-score
TAATTCCA | 0.2
CTAGGATC | -0.259
GACCAGGC | -0.182
ACGCTTAT | 0.0731
CAATGGTC | 0.00422
CAAATCCG | 0.00808
AAGGGAAG | -0.0509
CTTGGTCC | -0.159
CACAACAG | -0.225
AGAATACG | 0.0347
GAACACAC | -0.0869
CAGCAGGA | -0.0613
AACCGGGA | -0.16
AAAGGTTC | -0.125
TCAGTGCA | -0.111
ATCCGGGG | -0.182
AATTAACA | 0.246
TGGCGACA | -0.0294
TAAAACTA | 0.191
AGAAGTTC | -0.026
CTATACGC | -0.0306
CTGCTTCC | -0.297
GTCGAAAA | 0.198
ATAATGGC | 0.151
AATGCTCC | -0.269

Sequence | PBM E-score
CAACCTAG | -0.178
AGCCTGGG | -0.268
CAGTCCCA | -0.301
AAAGCATT | 0.0425
CCATGCAA | 0.166
GCGACTAC | -0.152
ACAACTCC | 0.0467
ACTGGCTG | -0.19
GGGGGACC | -0.335
CGATCTAA | 0.0176
AACCCAGT | -0.0547
AAGGTGTA | -0.131
CACTGCCA | 0.153
AATCCAAG | 0.00526
TCCGGACA | -0.147
TACCTATA | -0.0286
AAGTAAAA | 0.148
CCGTACCC | 0.042
CGCCGCCA | -0.08
AAAACCTA | 0.117
GTTTAATA | 0.202
AAGCCGAA | -0.0104
ACTGACTA | -0.0891
ACCTCTAT | -0.104
ATGATACC | 0.167

Sequence | PBM E-score
AACGCTGC | -0.106
CAAATGTG | 0.156
AGGGAGAT | -0.302
AAGTGAAC | -0.0953
GTGCTCCA | -0.0727
ACAAAAGC | 0.115
GCACACAA | -0.0149
AAGTGTCA | 0.0337
GCTCGTAA | 0.0158
GCCACTAA | -0.0864
ACTCGGCA | -0.0585
AGCCGCCA | -0.338
TCACGGAA | 0.139
AAGCATCC | -0.171
CGGGCTCA | -0.251
CTATTAAG | -0.0873
CGGAGACC | -0.147
CTGACAGA | 0.0412
TATCAATA | 0.113
AACCACAC | 0.0763
ATTGGAAA | 0.0732
AGTAAAAT | 0.195
GCCTAACA | 0.0301
GTACCTTA | -0.0192
CAATGCAA | 0.0969

Sequence | PBM E-score
ACTGTGCT | -0.0588
ACCCGAGA | -0.142
AGACCCGG | -0.161
CGGTGAGA | 0.0931
CAATACAC | 0.0965
GGGCCTAC | -0.293
CACTGGCG | -0.00517
ATGTCCCG | -0.207
GCACCACC | -0.201
CCTACAAA | 0.0648
GCCGTAGC | 0.159
CGTCAGAG | 0.365
GTGTTACA | 0.0865
GACGACAA | 0.256
AAACGCTA | -0.161
AGGCGATA | -0.157
TGACTGCA | 0.0188
CTGGAGAC | -0.159
AAAGGACG | -0.146
AAAAATTG | 0.2
TGGCATAA | 0.265
CGACATAG | -0.0819
CGTACGCA | 0.118
TCCTGCAA | -0.028
GGGGCGAC | -0.156

Sequence | PBM E-score
AACCATTC | -0.0155
CAATGCCA | -0.0721
CGTTCTTA | 0.0793
ACATCGCC | 0.0342
CGCCATAC | 0.0881
AGTTTTAT | 0.181
CCGAAGTA | -0.0348
TAGAAGAA | -0.097
AATCAACT | 0.161
CAAATAAC | 0.37
CCCACTAG | -0.341
GTGAGCTA | 0.0541
CACATCGC | -0.0321
AAAACGTC | 0.278
AAAGCCAC | 0.0352
AGGCCCGC | -0.0131
GTCAAAAC | 0.214
GATAGTAA | 0.14
TATGTACA | 0.119
CAAGACCG | -0.195
ACTGCCTC | -0.0372
CATGAGAC | -0.01
CTCTGAAG | -0.217
ATCATCCA | 0.0994
TGGCCTAA | -0.0862

Sequence | PBM E-score
AACCGTCT | -0.18
TGCATCAA | 0.154
ATATAAAG | 0.17
GGCGCATA | 0.0666
ATCTGTAG | -0.163
TACACGGA | 0.179
GCCACAGC | -0.106
AACTCAAA | 0.0489
AAGCGACG | -0.212
CAGGGCAC | 0.00975
GCAGTACC | -0.0815
AGTAATAG | 0.211
CGATGGCC | -0.162
CTCGACTA | -0.135
AGGGGCCA | -0.327
CGTAAGCC | 0.159
GTAGGTGA | 0.0559
TCAGATGA | 0.249
GATCGCGA | 0.00924
CTGTACAA | 0.0163
TACGGAGA | -0.00509
TGACGAAA | 0.477
CCGGTAAG | -0.0691
GCGCTCTA | -0.0714
TAACGCGA | -0.0127

Sequence | PBM E-score
GGTTTCGA | 0.0179
ATGGGGAG | -0.269
TATCTAAA | 0.0577
AAAAAGCC | 0.211
AGATTGTA | 0.193
AACTGTAT | 0.0562
CCTCATAG | 0.0666
CCAGGAAG | -0.092
GCTAGTAC | -0.217
TCATCGCA | 0.107
AGAGGCAG | -0.148
AATAGTGA | 0.241
AGGGAGTG | -0.139
AGCACGTG | 0.13
ACTAGCCC | -0.0733
AATGCGTC | 0.0833
CGGCTACC | -0.0393
CTGGCTCC | -0.322
AGAGCCTC | -0.115
GTTCCTTA | -0.0308
ACGGGAAG | -0.268
CAGAGTAA | 0.0498
CAGAGATA | 0.101
AGTTCGAT | -0.00384
AATGGGGG | -0.312

Sequence | PBM E-score
AAGAAAGC | 0.0288
AACTCCGT | 0.0842
ACAGCCAT | -0.0688
ACAACACA | 0.206
CAACCGAA | 0.0726
GCGGGTAC | -0.045
ACGGTAAG | -0.0599
AGAATGGC | -0.0246
AGGCAACT | 0.143
TATCCTCA | 0.0186
AAGGGACC | -0.176
AACGAAAT | 0.156
AAAGCACA | 0.143
GGTTACAA | 0.145
AACGGGCG | -0.12
AATACATA | 0.217
AACCTGCA | -0.119
AAACTAGC | -0.172
GGATAAAC | 0.187
CCCCGTGA | -0.0686
CGCAGGTC | -0.269
GAGAATAA | 0.149
AAGAAATC | 0.0481
CATTAGAC | -0.113
GCTCATGA | 0.0394

Sequence | PBM E-score
GAGGGGTA | -0.351
AGAGCGAA | -0.0706
AGCGAGTA | -0.117
CTGAGACC | -0.273
GATCTCAA | 0.0948
ACTGGCAC | -0.149
AGTGCCAA | -0.216
GGATGGCC | -0.319
TATAAATA | 0.294
GGGTTTAC | -0.00957
ATACCTAA | 0.208
ATACGCCG | 0.121
ATCCGTCG | -0.12
TAATCCCA | -0.059
GATTGGAC | -0.212
CGCCTCAG | 0.00359
ATTTGATC | 0.0671
AATACCCC | -0.274
CCTAGAAC | -0.121
CCTATCTA | -0.174
ATGGAATA | 0.186
AAAACCAG | 0.0727
CCACTAAA | -0.0731
ACAACGCA | 0.0232
AGTTGGAG | -0.123

Sequence | PBM E-score
CTGGTCTC | -0.345
GAACTGAC | 0.0195
GCAACCAC | -0.16
ACCCATTG | -0.105
ACGTTGCC | 0.0607
ATATTGCG | 0.138
ACTCATTA | 0.0336
ACAGAGCA | 0.0348
GTCCTCGA | -0.0345
AATATCTC | 0.084
CAACGCGC | 0.117
AGCAACAA | 0.222
ACGGTGAT | 0.121
GACACCAC | -0.0664
AGATAAAT | 0.144
ACGGCAGC | 0.207
CGTAGTGA | 0.0691
ACATACTC | 0.0717
AATGTAGC | -0.196
